Experimental data reported in article PMC4336329 (PLoS ONE, 2015).
Out of some 310,000 compounds screened, about 2,200 (0.71%) showed an effect of 50% or more. Effects have a minus sign here. This is one part of the list.

Each compound was assayed against human ether-à-go-go-related gene (hERG) potassium channel (human, UniProt Q12809) (assay: primary screen, population patch clamp on CHO cells stably expressing hERG).
human ether-à-go-go-related gene (hERG) potassium channel, sequence (Q12809 whole entry, looked up): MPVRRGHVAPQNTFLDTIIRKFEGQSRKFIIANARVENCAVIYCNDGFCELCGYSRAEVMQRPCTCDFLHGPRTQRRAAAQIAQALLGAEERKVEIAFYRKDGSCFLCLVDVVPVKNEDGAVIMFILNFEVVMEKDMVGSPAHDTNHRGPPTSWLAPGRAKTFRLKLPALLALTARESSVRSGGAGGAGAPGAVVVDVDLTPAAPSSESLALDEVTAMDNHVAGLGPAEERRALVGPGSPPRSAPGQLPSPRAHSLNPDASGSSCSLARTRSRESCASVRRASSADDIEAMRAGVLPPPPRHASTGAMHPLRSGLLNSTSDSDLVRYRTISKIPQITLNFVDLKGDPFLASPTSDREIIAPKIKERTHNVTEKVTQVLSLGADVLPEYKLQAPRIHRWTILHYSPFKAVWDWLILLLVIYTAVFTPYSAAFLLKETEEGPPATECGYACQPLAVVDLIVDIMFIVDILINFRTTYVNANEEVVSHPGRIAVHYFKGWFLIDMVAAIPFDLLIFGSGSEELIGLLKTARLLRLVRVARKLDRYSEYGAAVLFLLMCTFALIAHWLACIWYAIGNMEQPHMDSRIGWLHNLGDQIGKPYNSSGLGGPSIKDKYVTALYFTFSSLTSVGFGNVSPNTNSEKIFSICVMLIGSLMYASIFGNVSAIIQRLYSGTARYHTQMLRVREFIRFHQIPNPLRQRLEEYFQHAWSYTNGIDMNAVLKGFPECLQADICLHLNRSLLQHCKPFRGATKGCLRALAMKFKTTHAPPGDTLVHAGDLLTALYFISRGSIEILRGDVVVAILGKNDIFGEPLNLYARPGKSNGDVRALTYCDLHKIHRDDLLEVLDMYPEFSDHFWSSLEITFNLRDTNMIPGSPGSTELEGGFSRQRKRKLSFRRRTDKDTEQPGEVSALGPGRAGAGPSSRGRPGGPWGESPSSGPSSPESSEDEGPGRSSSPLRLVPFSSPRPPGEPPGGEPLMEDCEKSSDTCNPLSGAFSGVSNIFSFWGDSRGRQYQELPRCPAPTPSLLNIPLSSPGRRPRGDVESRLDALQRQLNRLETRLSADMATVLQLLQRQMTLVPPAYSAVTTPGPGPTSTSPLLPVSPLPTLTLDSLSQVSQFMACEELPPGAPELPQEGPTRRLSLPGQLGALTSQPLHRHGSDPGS

First: CCC(C)C(NC(N)=O)C(=O)NC1CCC(C)CC1 (stereo not drawn)
Second: CCOC(=O)C1CCN(C(=O)COC(=O)CNC(=O)c2ccc(OC)cc2)CC1
The “hERG current change (%, negative = inhibition) at 1uM” value of the first is lower: 6.83% for the first, 10.2% for the second.

First: S=C(NCc1ccccc1)N1CCc2ccccc2C1
Second: O=C(CCc1ccccc1)NCCc1nc2ccccc2[nH]1
The “hERG current change (%, negative = inhibition) at 1uM” value of the first is lower: 6.13% for the first, 9.75% for the second.

First: Cc1ccc(S(=O)(=O)N2CCCCC2)cc1NC(=O)COC(=O)C1(C)CC1(Cl)Cl (stereo not drawn)
Second: COc1cccc(C(=O)Nc2cc(S(=O)(=O)N3CCCCC3)ccc2OC)c1
The “hERG current change (%, negative = inhibition) at 1uM” value of the first is lower: -2.48% for the first, 8.89% for the second.

Going from `Cc1ccc(S(=O)(=O)N2CCCN(S(=O)(=O)c3ccc(C)c(C)c3)CC2)cc1C` to `CCC(=O)N1c2ccc(S(=O)(=O)N3CCN(CC)CC3)cc2CC1C` (stereo not drawn), the “hERG current change (%, negative = inhibition) at 1uM” value rises from -0.269% to 9.77%.

Compared with `COc1ccccc1C(=O)Nc1nnc(SCC(=O)NCc2ccco2)s1`, `Cc1nnc(SCC(=O)NCc2ccccc2)[nH]c1=O` is lower in “hERG current change (%, negative = inhibition) at 1uM” value: 9.17% for the first, -9.23% for the second.

First: Nc1c(Cl)cc(C2=NCCn3nc4cc(C(F)(F)F)ccc4c32)cc1Cl
Second: O=C(O)CCc1nc2cc(C(F)(F)F)ccc2n(Cc2ccccc2)c1=O
The “hERG current change (%, negative = inhibition) at 1uM” value of the first is lower: 18.6% for the first, 23.7% for the second.

Going from `NC(=O)c1c(NC(=O)C(=O)N2CCOCC2)sc2c1CCCC2` to `O=C(Nc1cnc2ccccc2c1)N1CCOCC1`, the “hERG current change (%, negative = inhibition) at 1uM” value falls from 18.8% to 8.57%.

Going from `C=C1[C@@H](OC(C)=O)[C@]23C[C@@H]1[C@@H](OC(C)=O)CC2[C@]12C4C[C@H]3[C@H]1N(CC)C[C@]4(C)CC[C@@H]2O` (stereo partly drawn) to `CCN1CCN(C(=S)NCCOC)CC1.O=C(O)C(=O)O`, the “hERG current change (%, negative = inhibition) at 1uM” value rises from -10% to 7.54%.

First: Cc1ccc([N+](=O)[O-])c(OCCCN2CCC(Cc3ccccc3)CC2)c1.O=C(O)C(=O)O
Second: O=C(Cc1ccccc1)c1c[nH]c(C(=O)NCCCN2CCOCC2)c1
The “hERG current change (%, negative = inhibition) at 1uM” value of the first is lower: -95.8% for the first, 8.66% for the second.

Compared with `FC(F)(F)c1ccccc1CCN1CCNCC1`, `Cc1cc(=O)oc2c1c(C(F)(F)F)nn2-c1ccccc1` is lower in “hERG current change (%, negative = inhibition) at 1uM” value: 18.3% for the first, 7.45% for the second.

Going from `O=C(CSc1cccc[n+]1[O-])c1ccc(-c2ccccc2)cc1` to `O=C(O)c1ccccc1-c1nc(-c2ccccc2)c(-c2ccccc2)[nH]1`, the “hERG current change (%, negative = inhibition) at 1uM” value rises from 11.4% to 24%.

First: O=S(=O)(NCCOc1ccccc1)c1ccc2ccccc2c1
Second: N#C/C(=C\c1cn(CCOc2ccccc2)c2ccccc12)C(=O)NCc1cccs1
The “hERG current change (%, negative = inhibition) at 1uM” value of the first is higher: 16% for the first, 0.228% for the second.

Going from `CC(C)(C)C(=O)NCCc1nc2ccccc2n1CC(=O)c1ccc(Cl)cc1` to `CCCC(=O)Nc1ccccc1-c1nnn(CC(=O)Nc2ccc(OC)cc2)n1`, the “hERG current change (%, negative = inhibition) at 1uM” value rises from -2.26% to -0.23%.

Going from `Cc1ccc(NC(NC(=O)c2ccccn2)C(Cl)(Cl)Cl)cc1` (stereo not drawn) to `Cc1ccc(NCc2nnc(SCC(=O)NNC(=O)Cc3ccccc3)n2C)cc1`, the “hERG current change (%, negative = inhibition) at 1uM” value rises from -2.99% to 13.8%.

First: CS(=O)(=O)c1ccc(Oc2ccc(-c3nnco3)cc2)c([N+](=O)[O-])c1
Second: CCOc1ccc(Nc2ncnc3ccc([N+](=O)[O-])cc23)cc1
The “hERG current change (%, negative = inhibition) at 1uM” value of the first is lower: 13.9% for the first, 18.7% for the second.

First: Cc1ccc(C)c(S(=O)(=O)NCc2ccc(C(=O)N3CCCCC3C)cc2)c1 (stereo not drawn)
Second: Cc1ccc(CNC(=O)c2ccc3c(c2)NC(=O)CS3)cc1
The “hERG current change (%, negative = inhibition) at 1uM” value of the first is lower: -0.97% for the first, 4.9% for the second.

Going from `CN(c1cccc(NC(=O)COc2ccc(Cl)cc2Cl)c1)S(C)(=O)=O` to `CCS(=O)(=O)N1Cc2ccccc2CC1C(=O)Nc1ccc(F)c(F)c1` (stereo not drawn), the “hERG current change (%, negative = inhibition) at 1uM” value rises from 1.5% to 7.83%.

Compared with `CCn1c(N2CCN(C(=O)/C=C/c3ccccc3)CC2)nc2ccccc21`, `Clc1ccccc1-c1ccc(CN2CCN(c3ccccc3)CC2)o1` is higher in “hERG current change (%, negative = inhibition) at 1uM” value: -77.4% for the first, 5.09% for the second.

Going from `COCCCNC(=O)CSc1nc2ccccc2c(=O)n1CCCC(=O)NCC1CCCO1` (stereo not drawn) to `CCOc1ccccc1NC(=O)CSc1nnc(C2CC2)n1CC`, the “hERG current change (%, negative = inhibition) at 1uM” value rises from -1.22% to 16.9%.

Compared with `CCN(CC)S(=O)(=O)c1cc(C(=O)n2cccn2)c(Cl)cc1Cl`, `CCN(CC)c1ncnc2c1ncn2Cc1c(Cl)cccc1Cl` is higher in “hERG current change (%, negative = inhibition) at 1uM” value: 0.829% for the first, 13.2% for the second.

First: CNC(=S)NNC(=O)c1ccc(=O)n(Cc2cccc(C(F)(F)F)c2)c1
Second: CC1=C[C@@H](C)[C@@H](c2ccc(C(F)(F)F)cc2)OC1=O
The “hERG current change (%, negative = inhibition) at 1uM” value of the first is higher: 10.5% for the first, 7.95% for the second.

First: O=C(c1ccccc1-c1nc2ccccc2[nH]1)N1CCCCC1
Second: CC(Sc1nc2ccccc2s1)C(=O)NC1CCCc2ccccc21 (stereo not drawn)
The “hERG current change (%, negative = inhibition) at 1uM” value of the first is lower: 8.35% for the first, 11.5% for the second.

Going from `CS(=O)(=O)N1CCc2nc(-c3ccccc3)sc2C1` to `N#Cc1c2n(c(=S)n(-c3ccccc3)c1=O)CCCCC2`, the “hERG current change (%, negative = inhibition) at 1uM” value falls from 6.34% to 2.53%.

Going from `Nc1ccc(S(=O)(=O)c2ccc(N)cc2)cc1` to `O=C(NNC(=O)c1cccc(S(=O)(=O)Nc2ccc(Cl)cc2)c1)c1ccc(=O)[nH]c1`, the “hERG current change (%, negative = inhibition) at 1uM” value falls from 10% to 5.32%.

First: CCN(CC)CCCNC(=O)c1nn(-c2cccc(OC)c2)c(=O)c2ccccc12
Second: CC(C)OCCCNC(=O)c1cc(-c2cccnc2)nc2ccccc12
The “hERG current change (%, negative = inhibition) at 1uM” value of the first is lower: -66.9% for the first, 16.5% for the second.

Going from `CSCCC(=O)N1CCCC(CNC(=O)c2ccc(-c3ccccc3)cc2)C1` (stereo not drawn) to `CC(NC(=O)C1CCN(C(=O)Nc2ccccc2)CC1)c1ccccc1` (stereo not drawn), the “hERG current change (%, negative = inhibition) at 1uM” value rises from -4.38% to 3.97%.

First: O=C(O)CN1C(=O)/C(=C\c2ccc(OC(=O)c3ccco3)cc2)SC1=S
Second: CCc1cc2ccc(C)cc2nc1SCC(=O)N1CCN(C(=O)c2ccco2)CC1
The “hERG current change (%, negative = inhibition) at 1uM” value of the first is higher: 9.37% for the first, -11.8% for the second.

Going from `S=c1[nH]nc(-c2cccnc2)o1` to `O=C(NNC(=O)c1cc(-c2ccncc2)nc2ccccc12)Nc1ccc(F)cc1`, the “hERG current change (%, negative = inhibition) at 1uM” value falls from 16.6% to 9.21%.

First: CCCNS(=O)(=O)c1ccc(CCC(=O)Nc2ccc3c(c2)OCCO3)cc1
Second: CCn1nnnc1SCC(=O)Nc1ccc2c(c1)OCCO2
The “hERG current change (%, negative = inhibition) at 1uM” value of the first is lower: -2.55% for the first, 7.92% for the second.

Compared with `CCOC(=O)c1ccc(N2C(=O)CC(Nc3ccc(CCO)cc3)C2=O)cc1` (stereo not drawn), `CCOc1ccc(NC(=O)CNC(=O)c2ccc(OC)cc2)cc1` is higher in “hERG current change (%, negative = inhibition) at 1uM” value: -13.5% for the first, 10.8% for the second.

Going from `COc1ccccc1/C=C/C(=O)Nc1nc(N)n(-c2ccccc2)n1` to `CC(NC(=O)CSc1nc2ccccc2c(=O)[nH]1)c1ccccc1` (stereo not drawn), the “hERG current change (%, negative = inhibition) at 1uM” value falls from 0.173% to -3%.

Going from `Cc1ccc(SCCN2CCC(C)CCC2=O)cc1` (stereo not drawn) to `Cc1ccc(CNc2ccc(N3CCOCC3)cc2)cc1`, the “hERG current change (%, negative = inhibition) at 1uM” value rises from -2.54% to 2.34%.

First: CCCN(CC(=O)Nc1ccccc1C)C(=O)CSc1ccccc1C
Second: CN(C)CC/C=C1/c2ccccc2CS(=O)(=O)c2ccccc21
The “hERG current change (%, negative = inhibition) at 1uM” value of the first is higher: 14.1% for the first, 12.8% for the second.

Going from `O=C1C(=O)N(CCO)C(c2ccccc2)/C1=C(\O)c1ccccc1` (stereo not drawn) to `CCNC(=O)C(Cc1ccccc1)NC(=O)OCc1ccccc1` (stereo not drawn), the “hERG current change (%, negative = inhibition) at 1uM” value rises from 7.93% to 10.4%.

Going from `CCOc1ccc(/C=C2\SC(=O)N(CCNC(=O)CN3C(=O)NC4(CCCC4)C3=O)C2=O)cc1OC` to `COC(=O)c1ccccc1NC(=O)Cn1cnc2ccc(S(=O)(=O)N3CCC(C)CC3)cc2c1=O`, the “hERG current change (%, negative = inhibition) at 1uM” value falls from 7.19% to 4.04%.

First: CC1(c2ccccc2)NC(=O)N(Cc2ccc([N+](=O)[O-])cc2)C1=O (stereo not drawn)
Second: C[C@@H](C(=O)NCc1ccc(S(C)(=O)=O)cc1)[C@H]1C[C@]1(C)[C@H](NC(=O)OCc1ccccc1)c1ccccc1
The “hERG current change (%, negative = inhibition) at 1uM” value of the first is lower: -16.4% for the first, 13.3% for the second.

Going from `CCC(C(=O)NC(C)(C)C)N(Cc1cccs1)C(=O)CNS(=O)(=O)c1ccccc1` (stereo not drawn) to `O=C(NCCC(=O)N(Cc1ccco1)Cc1cccs1)c1ccc(Br)cc1`, the “hERG current change (%, negative = inhibition) at 1uM” value rises from -0.0593% to 12.3%.

Compared with `CCc1ccc(NC(=O)N(CCCN2CCOCC2)C(C)c2cc3cccc(OC)c3o2)cc1` (stereo not drawn), `CCC(C)NC(=O)Nc1ccc2c(c1)N(C)C(=O)c1ccccc1S2` (stereo not drawn) is lower in “hERG current change (%, negative = inhibition) at 1uM” value: 2.34% for the first, 0.43% for the second.

First: Cc1ccc(S(=O)(=O)N(CCCO)CC(O)CON=C2c3ccccc3-c3ccccc32)cc1 (stereo not drawn)
Second: CCOC(=O)N1CCC(N2C(=O)c3ccccc3C2Nc2ccc(S(=O)(=O)N3CCCCC3)cc2)CC1 (stereo not drawn)
The “hERG current change (%, negative = inhibition) at 1uM” value of the first is higher: 13% for the first, -7.87% for the second.

Going from `C/C(=N\NC(N)=S)C1(C)CC2(CC(C)(C)OC2=O)C(=O)O1` (stereo not drawn) to `COc1cc(-c2nnc(SCC3(c4ccccc4)OCCO3)o2)cc(OC)c1OC`, the “hERG current change (%, negative = inhibition) at 1uM” value falls from 10.1% to 9.72%.

Compared with `C=CCN1C(=O)C(Cc2ccc(C)cc2)S/C1=N/N=C/c1ccco1` (stereo not drawn), `Cc1ccc(Nc2nc(N)nc(CSc3ncccn3)n2)cc1` is lower in “hERG current change (%, negative = inhibition) at 1uM” value: 12.1% for the first, 4.58% for the second.

Going from `O=C(CCn1nnc(-c2cccs2)n1)NC1CCCCC1` to `CCc1nnc(NC(=O)CSc2nnc(CCc3nc4ccccc4[nH]3)n2C)s1`, the “hERG current change (%, negative = inhibition) at 1uM” value rises from 9.66% to 19.2%.

Compared with `CCCCC(=O)OCC(=O)Nc1ccc(OC(F)F)cc1`, `CN1CCN(C(=O)CN(c2ccccc2)S(=O)(=O)N(C)C)CC1` is higher in “hERG current change (%, negative = inhibition) at 1uM” value: 1.88% for the first, 15.2% for the second.

With `Fc1ccccc1OCCSc1ncnc2nc[nH]c12` the “hERG current change (%, negative = inhibition) at 1uM” value was 10.9%.
